Test results from the RNAGym collection of RNA variant scans (doi:10.1073/pnas.2313332121).
Variants at the floor of the assay are shown more often than the library holds them.

B1: TPR 5TU (parent)
chain: GGAUCUUCUCGAUCUAACAAAAAAGACAAAUCUGCCACAAAGCUUGAGAGCAUCUUCGGAUGCAGAGGCGGCAGCCUUCGGUGGCGCGAUAGCGCCAACGUUCUCAACUAUGACACGCAAAACGCGUGCUCCGUUGAAUGGAGUUUAUCAUG

Variants of: B1
Experiment: polymerase ribozyme fitness, log enrichment relative to wild type (log ratio); higher = more active; in vitro selection for triplet polymerase activity
Outline: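 Only genotypes with ≥10 input reads and ≥1 read per output were kept after Illumina sequencing of input and output libraries. These libraries were PCR-built, transcribed mutants of each subunit of a heterodimeric triplet polymerase ribozyme, each put through one triplicate in vitro selection round with frozen incubation at −7 °C, gel excision of extended constructs, streptavidin-bead capture and RT-PCR. Fitness is a logarithmic ratio of genotype enrichment to wild-type enrichment, from inverse-variance-weighted replicate averages, with the logarithm in base 2.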

Polymerase ribozyme fitness (log ratio), ≤ -4.2:
GGAUCUUCUCGAUCUAACAAAAAGGACAAAUCUGCCACAAAGCUUGAGAGCGUCUUUGGAUGCAGAGGCGGCAGCCUUCGGUGGCGAGAUAGCGCCAACGUUCUCAACGAUGACACGUAAAACGCGUGCUCCGUUGAAUGGUGUUUAUCAUU [A24G A52G C57U C87A U109G C118U A142U G152U]
GGAUCUUCUCGAUCUAACAAAAAGGACAAAUCUGCCACAAAGCUUGAAAGCAUCUUCGGAUGCAGAGGCGGCAGCCUUCGGUGGCGCGAUAGCGCCAACGUUCUCAACUAUGACGCGCAAAACGCGUGCUCCGUUGAAGGGAGGUUAUCAUG [A24G G48A A115G U139G U144G]
GGAUCUUCUCGAUCUAACAAAAAGGACAAAUCUGCCACAAAGCUUGAGAGCAUCUUCGGAUGCAGAGGCGGCAGCCUUAGGUGACGCGAUAGCGCCAACGUUCUCAACUAUGACAAGCAAAACGCGUGCUCCGUUGAAUGGAGUUUAUCAUG [A24G C79A G84A C116A]
GGAUCUUCUCGAUCUAACAAAAAGGACAAAUCUGCCACAAAGCUUGAGAGCCUCUUCGGAUGCAGAGGCGGCAGCCUUCGGUGGCGCGAUCGCGCCAACGUUCUCAACUAUGACACGCAAAACGCGUGCUCCGUUGAAUGGAGUUUAUCAUG [A24G A52C A91C]
GGAUCUUCUCGAUCUAACAAAAAGGACAAAUCUGCCACAAAGCUUGAGAGCAUCUUCGGAUGCAGAGGCGGCAGCCAUCGGUGGCGCGGUAGCGCCAACGUUCUCAACUAUGCCACGCAAAACGCGUGCUCCGUUGAAUGGAGUUUAUCAUG [A24G U77A A89G A113C]
GGAUCUUCUCGAUCUAACAAAAAGGACAAAUCUGCCACAAAGCUUGAGAGCAUCUUCGGAUGCAGAGGCGGCAGCCUUAGGUGUCGCGAUAGCGCCAACGUUCUCAACUAUGACACGCAUAACGCGGGCUCCGUUGAAUGGAGUUUAUGAUG [A24G C79A G84U A120U U127G C149G]
GGAUCUUCUCGAUCUAACAAAAAGGACAAAUCUGCCACAAAGCUUGAGAGCAUCUUCGGAUGCAGCGGCGGCAGCCUUCGGUGGCGGGAUAACGCCAACGUUCUCAACUAUGACACGCAAAACGCGUGCUCCGUUGAAUGGAGUGUAUCAUG [A24G A66C C87G G92A U145G]
GGAUCUUCUCGAUCUAACAAAAAUGACAAAUCUGCCCCAAAGCUUGAGGGCAUCUUCGGAUGCAGAGGCGGCAGCUUUCGGUGGCGCCAUAGCGCCAACGUUAUGAACUAUGACACGCAAAACGCGUGCUCCGUUGAAUGGAUUUUAUCAUG [A24U A37C A49G C76U G88C C103A C105G G143U]
GGAUCUUCUCGAUCUAACAAAAAUGACAGAUCUGCCACAAAGCUUGAGAGCAUCUUCGGAUGCAGAGGCGGCAGCCUUCGGUGGUGCGAUAGCGCCAACGUUCUAAACUAUGACAGGCAAAACGGGUGCUCCGUUGAAUGGAGGUUAUCAUG [A24U A29G C85U C105A C116G C125G U144G]
GGAUCUUCUCGAUCUAACAAAAAGGACAAAUGUGCCACAAAGCUGGAGAGCAUCUUCGGAUGCAGAGGCGGUAGCCUUCGGUGGCGCGAUAGCGACAACGUUGUCAACUAUGACACGCAAAACGCGUGCUCCAUUGAAUGGAGUUUAUCAUG [A24G C32G U45G C72U C95A C103G G133A]
GGAUCUUCUCGAUCUAACAAAAAGGACAAAUCUGCCACAAAGCUUGAGAGCAUGUUCGGAUGCAGAGUCGGCAGCGUUCGAUGGGGCGAUAGCGCCAACGUUCUCAACUAUGACACGCAAAACGCGUGCUCCGUUGAAUGGAGUUUAUCAUG [A24G C54G G68U C76G G81A C85G]
GGAUCUUCUCGAUCUAACAAAAAGGACAAAUCUGCCAUAAAGCUUGAGAGCAUCUUCGCAUGCAGAGGCGGCAGCCUUCGGUGGCGCGAUAGCGCCAGCGGUCUCAACUAUGACACGCCAAACGCGUCCUCCGUUGAAUAGAGUUUAUCAUG [A24G C38U G59C A98G U101G A119C G128C G140A]
GGAUCUUCUCGAUCUAACAAAAAGGACAAAUCUGCCACAAAGCUUGAGAGCAUCUUCGGAUGCAGAGGCGGCAGCCUUCGGUGGCGCGAUAGUGCCACCGUUUUCAACUAUGACACGCAAAACGCGUGCUCCGUUGAAUGGAGUUUAUCAUG [A24G C93U A98C C103U]
GGAUCUUCUCGAUCUAACAAAAAGGACAAAUCUGCCACAAAGCUUGAGAGCAUCUUCGGAUGCAGAGGCGGCAGCCUGCGGUGGCACGAUAGCGCCAACGUUCUCAACUAUGACACGCAAAACGCGUGCUCCGUUGAAUGGAGUUUAUCAUG [A24G U78G G86A]
GGAUCUUCUCGAUCUAACAAAAAGGACAAAUCUGGCACAAAGCUUGAGAGCAUCUUUGGAUGCAGAGGCGGCAGCCUUCGGUGGCGCGAUAGCGCCAACGUUCUCAUCUAUGACACGCAAAACGCGUGCUCCGCUGAAUGGAGCUUAUCAUG [A24G C35G C57U A107U U134C U144C]
GGAUCUUCUCGAUCUAACAAAAAGGAAAAAUCUGCCACAAAGCUUGAGAGCAUCUUCGGAUGCAGAGGCGGAAGCCGUCGGUGGCUCGAUAGCGCCAACGUUCUCAACUAUGACACGCAAAACGCGUGUUCCGUUGAAUGGAGUUUAUCAUG [A24G C27A C72A U77G G86U C129U]
GGAUCUUCUCGAUCUAACAAAAAGGACAAAUCUGCCACAAAGUUUGAGAGCAUCAUCGGAUGCGGAGGCGGCAGCAUUCGGUGGCGCGAUAGCGCCAACGUUCUCAACUAUGACACGCAAAACGCGUGCUCCGUUAAAUGGAGUUUAUCAUG [A24G C43U U55A A64G C76A G136A]
GGAUCUUCUCGAUCUAACAAAAAGGACAAAUUUGGCCCAAAGCUUGAGAGCAUCUUCGGAUGCAGAGGCGGCAGCCUUAGGUGGCGCGUUAGCGCCAACGUUCUCAACUAUGACACGCAAAACGCGUGCUCCGUUGAAUGGAGUUUAUCAUG [A24G C32U C35G A37C C79A A89U]
GGAUCUUCUCGAUCUAACAAAAAGGACAAAACUGCCACAAACCUUGAGAGCGUCUUCGGCUGCAGAGGCGGCAGCCUUCGGUGGCGGGAUAGCGCCAACGUUCUCAACUAUGAUACGCAAAACGCGUGCUCCGUUGAAUGGAGUUUAUCAUG [A24G U31A G42C A52G A60C C87G C114U]
GGAUCUUCUCGAUCUAACAAAAAGGACAAAUCUGCCACAAAGCUUGAGAGCAUCUUCGGAUGCAGAGGCGGCAGCCUUCGGUGGGGCGAUAGCGCCAACGUUCUCAACUAUGACACGCAAAACGCGUGCUCCGUUGAAUGGAGUUUACCAUG [A24G C85G U148C]
GGAUCUUCUCGAUCUAACAAAAAGGACAAAUCUGCCACAAAGCUUGAGAGCAUCUUCGGAUGCAGAGGGGGCAGCCUUCGGUGGCGCGAUAGCGCCAACGUUCUCAACUAUGACACGCAAAACGCGUGCUCCGUUGAAUGGAGUUUAUCAUG [A24G C69G]
GGAUCUUCUCGAUCUAACAAAAAUGACAAUUCUGUCACAACUCUUGAGAGCAUCUUCGAAUGCAGAGGCGGCAGCCUUCGGUGGCGCGAUAGGGCCAACGUUCUCAACUAUGGCACGCAAAACGCGUGCUCCGUUGAAUGGAGUUUAUCAUG [A24U A30U C35U A41C G42U G59A C93G A113G]
GGAUCUUCUCGAUCUAACAAAAAUGACAAAUCUGCCACCAAGCUUGAGAUCAUCUUGGGAUGCAGAGGCGGGAGCCUUCGCUGGUGCGAUAGCGCCAACGUUCUCAACUAUGACACGAAAAACGUGUGCUCCGUUGAAUGGAGUUUAUCAUG [A24U A39C G50U C57G C72G G81C C85U C118A C125U]
GGAUCUUCUCGAUCUAACAAAAAUGACAAAUCUGCCACCAAGCUUGAGAGCAUCUUCGGAUGCAGAGGCGGCAGCCUUCGGUGGGGCGAUAGCGCCAACGUUCUCAUCUAUGACACGCAAAACGGGUGCUCCGUUGAAUGGAGUUUAUCAUG [A24U A39C C85G A107U C125G]
GGAUCUUCUCGAUCUAACAAAAAGGACAAAUCUGCCACAAAGCUUGAGACCAUCUUCGGAUGCAGGGGCGGCAGCCUUCGGUGGCGCGAUAGCGCCAACGUUCUCAACUAUGACACGCAAUACGCGUGCUUCGUUGAAUGGAGUUUAUCAUG [A24G G50C A66G A121U C131U]
GGAUCUUCUCGAUCUAACAAAAAGGACAAAUCUGCCACAAAGCUUGAGACCAUCUUCGGAUGCAGAGGCGGCAGCCUUCGGUGGCGUGAUAGCGCCAACGUUCUCAACUAUGACACGCAGAACGCGUGCUCCGUUGAAUGGAGUUUAUCAUG [A24G G50C C87U A120G]
GGAUCUUCUCGAUCUAACAAAAAGGACAAAUCUGCCACAAAGCUUUAGAGCAUUUUCGGAUGCAGAGGCGGCAGCCUUCGGUGGCGCGAUAGUGCCAACGUUCUCAACUAUGAUACGCAAAACGCGUGCUCCGUUGAAUGGAGUUUAUCAUG [A24G G46U C54U C93U C114U]
GGAUCUUCUCGAUCUAACAAAAAGGACAAAUCUGCCACAAAGCUUGAGAUCAUCUUCGGAUGCAGAGGCGGCAGCCUUCGGUGGCGCGAUAGCACCAGCGUUCUCAACUAUGACACGCAAAACGCGUGCUCCGUUGAAUGGAGCUUAUCAUG [A24G G50U G94A A98G U144C]
GGAUCUUCUCGAUCUAACAAAAAGGACAAAUCUGUCACAAAGCUUGAGAGUAUCUUCGGAUGCAGAGGCGGCAGUCUUCGGUGGCGCGAUAGCGCCGACGUUCUCAACUAUGACACGCAAAACGCGUGCUCCGUUGAAUGGAGUUUAUCAUG [A24G C35U C51U C75U A97G]
GGAUCUUCUCGAUCUAACAAAAAGGACAAAUCUGCCACAAAGCUUGAGAGCAUCUUCGGAGGCAGAGACGGCAGCCUUCGGUGGCGCAAUAGCGCCAACGUUCUCAACUAUGACACGCAAAACGCGUGCUCCGUUGAAUGGAGUUUAUCAUG [A24G U61G G68A G88A]
GGAUCUUCUCGAUCUAACAAAAAGGACAAAUCUGCCACAAAGCUUGAGAGCAUCUUCGGAUGCACAGGCGGCAGCCUUCGGUGGCGCGAUGGCGCCAACGUUCUCAACUAUGACACGCAAAACGCGUGCUCCGUUGAAUGGAGUUUAUCAUG [A24G G65C A91G]
GGAUCUUCUCGAUCUAACAAAAAGGACAAAUCUGCCACAAAGCUUGAGAGCAUCUUCGGAUGCAGAGGCGGCAGCCUUCCGUGGCGCGAUAGCGCCAACGUUCUCAACUAUGACACGCAAAACGCCUGCUUCGUUGAAUGGAGUUUAUCAUG [A24G G80C G126C C131U]
GGAUCUUCUCGAUCUAACAAAAAGGACAAAUUUGCCACAAAGCUUGAGAGCAUCUUCGGAUGCAGAGGCGGCAGCCUUCGUUGGCGCGAUAGCGCCAACAUUCUCAACUAUGACACGCAAAACGCGUGCUCCGUUGAGUGGAGUUUAUCAUA [A24G C32U G81U G100A A138G G152A]
GGAUCUUCUCGAUCUAACAAAAAUGACCAAUCUGCCACAAAGCUUGAGAGCAUCUUCGGAUGCAGAGGCGUCAGCCUUCGGUGGCGCGAUAGCGCCAAAGUUCUCAACUAUGAUACGCAGUACGCGUGCUCCGUUGAAUGAAGAUUAUCAUG [A24U A28C G71U C99A C114U A120G A121U G141A U144A]
GGAUCUUCUCGAUCUAACAAAAAGGACAAAUCUGUCACAAAGCUUGAUAGCAUCUACGGACGCAGAGGCGGCAGCCUUCGGUGGCGCGAUAGCGGCAACGUUCUGAACUAUGACACGCAAAACGCGUGCUCCGUUGAAUGGAGUUUAUCAUG [A24G C35U G48U U56A U61C C95G C105G]
GGAUCUUCUCGAUCUAACAAAAAGGACAAAUGUGCCACAAAGCUUGACAACAUCUUCGGAUGCAGAGGCGGCAGCCUUCGGUGGCUCGAUAGCGCCAACGUUCUCAACUAUGACACGCAAAACGCGUGCUCCGUUGAAUGGAGUUUAUCAUG [A24G C32G G48C G50A G86U]
GGAUCUUCUCGAUCUAACAAAAAGGACAAAUCUGCCACAAAGCUUGAGAGCAUCUUCGGAUGCAGUGGCGGCAGCCUUCGGUGGCGCGAUGGCGCCAACGUUCUCAACUAUGACACGCAAAACGCGUGCUCCGUUGAAUGGAGUUUAUCAUG [A24G A66U A91G]
GGAUCUUCUCGAUCUAACAAAAAUGACAUAUCUGCCACAAAGCUUGAGAGCAUCUUCCGAUGCAGAAGCGGCAGCCUUCGGUGGCGCGAUAUCGCCAACGUUCUGAACUAUGCCACGCAAAACGCGUGCUCCGUUGAAUGGAGUUUAUCAUG [A24U A29U G58C G67A G92U C105G A113C]
